These results are taken from the BET-seq Pho4 binding data (Le et al. 2018).

The list shows a part of the results. The energies were worked out here from pooled read counts, against the library average; single values are noisy.

The assay deals with T1, Pho4 (S. cerevisiae) (UniProt P07270).
T1 sequence: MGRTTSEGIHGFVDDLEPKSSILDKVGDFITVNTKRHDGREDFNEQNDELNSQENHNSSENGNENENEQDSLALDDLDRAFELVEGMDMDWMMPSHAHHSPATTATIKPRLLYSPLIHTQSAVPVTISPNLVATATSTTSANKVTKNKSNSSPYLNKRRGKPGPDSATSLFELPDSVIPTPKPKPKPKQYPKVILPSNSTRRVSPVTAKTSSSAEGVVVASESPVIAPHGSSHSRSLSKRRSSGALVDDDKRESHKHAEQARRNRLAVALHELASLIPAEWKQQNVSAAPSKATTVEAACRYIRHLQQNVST
In words: relative binding free energy (BET-seq); higher = weaker binding. Particulars: reference: library average.
On to AGCAACACGTGGAGGG, for which the “relative binding free energy” value is -0.02 kcal/mol.

As for TGCTTCACGTGGGGTT, the “relative binding free energy” value is 0.01 kcal/mol.

For the sequence CATGGCACGTGGTGCG, the “relative binding free energy” value was -0.2 kcal/mol.

TGGGACACGTGTCTGG: the “relative binding free energy” value was 0.03 kcal/mol.

For GTATGCACGTGTTCAG, the “relative binding free energy” value is -0.05 kcal/mol.

As to TTGTCCACGTGGATAT, the “relative binding free energy” value is 0.15 kcal/mol.

For GGGGGCACGTGGACCG, the “relative binding free energy” value is -0.15 kcal/mol.

For TGTTTCACGTGTGTTT, the “relative binding free energy” value was 0.28 kcal/mol.

Turning to GAGACCACGTGGTTGG, the “relative binding free energy” value came to 0 kcal/mol.

Take GTGTTCACGTGCTTCG: the “relative binding free energy” value was determined as 0.32 kcal/mol.

TCTAGCACGTGGGTTC: the “relative binding free energy” value is -0.1 kcal/mol.

Take TCGTCCACGTGGGTGG: the “relative binding free energy” value is -0.18 kcal/mol.

As to AGGGGCACGTGACACG, the “relative binding free energy” value worked out at 0.04 kcal/mol.

With GTGATCACGTGATGGT, the “relative binding free energy” value amounted to 0.24 kcal/mol.

For the sequence TTTGGCACGTGATCGC, the “relative binding free energy” value was determined as 0 kcal/mol.

TTAAGCACGTGAGTTT: the “relative binding free energy” value amounted to 0.2 kcal/mol.

Regarding ATGTTCACGTGTCTCT, the “relative binding free energy” value was determined as 0.35 kcal/mol.

In the case of GGTCACACGTGGTGGA, the “relative binding free energy” value stood at 0.18 kcal/mol.

As to ATTTGCACGTGCGTTT, the “relative binding free energy” value was -0.07 kcal/mol.

With TTGATCACGTGGTAAG, the “relative binding free energy” value was determined as 0.14 kcal/mol.

Take TTTATCACGTGGCGCG: the “relative binding free energy” value was 0.03 kcal/mol.

On to TTAAACACGTGTAGAT, for which the “relative binding free energy” value was 0.21 kcal/mol.

As for TGGTGCACGTGTCCAT, the “relative binding free energy” value is 0 kcal/mol.

Regarding AGTATCACGTGGTGAA, the “relative binding free energy” value is -0.06 kcal/mol.

Consider TTACTCACGTGCGGTT, for which the “relative binding free energy” value was found to be 0.16 kcal/mol.

GGTCTCACGTGATCGG: the “relative binding free energy” value is 0.36 kcal/mol.

As to CATATCACGTGATGGG, the “relative binding free energy” value stood at 0.24 kcal/mol.

ATGACCACGTGGGGGC: the “relative binding free energy” value was -0.16 kcal/mol.

On to ATGTGCACGTGGATCA, for which the “relative binding free energy” value is -0.03 kcal/mol.

Turning to AGTGTCACGTGGGCAT, the “relative binding free energy” value is -0.06 kcal/mol.

GGGGTCACGTGTTACT: the “relative binding free energy” value amounted to 0.34 kcal/mol.

On to TTTGCCACGTGATGTA, for which the “relative binding free energy” value was determined as 0.04 kcal/mol.

AATTGCACGTGTACGG: the “relative binding free energy” value is 0.03 kcal/mol.

Turning to ATCTACACGTGTTTAT, the “relative binding free energy” value worked out at 0.24 kcal/mol.

In the case of GGGGGCACGTGGCGAC, the “relative binding free energy” value is -0.2 kcal/mol.

As to CGTGTCACGTGGTCAG, the “relative binding free energy” value is -0.09 kcal/mol.

Consider GGATCCACGTGAGGTG, for which the “relative binding free energy” value was found to be 0.26 kcal/mol.

For the sequence GGATTCACGTGGTTAG, the “relative binding free energy” value was 0.28 kcal/mol.

With TTTATCACGTGGTTTA, the “relative binding free energy” value stood at 0.13 kcal/mol.

As to TTACGCACGTGTGGTT, the “relative binding free energy” value was -0.06 kcal/mol.

As for TTGGGCACGTGAGGCC, the “relative binding free energy” value was found to be 0.1 kcal/mol.

With TTGAGCACGTGGGAAT, the “relative binding free energy” value was 0.02 kcal/mol.

With CTGGTCACGTGATATG, the “relative binding free energy” value came to 0.14 kcal/mol.

As for GGGAGCACGTGCGGGA, the “relative binding free energy” value was -0.13 kcal/mol.

Turning to ATTTGCACGTGTCATG, the “relative binding free energy” value was 0.14 kcal/mol.

Regarding ATACTCACGTGGCGGG, the “relative binding free energy” value was found to be 0.22 kcal/mol.

As for GTGAACACGTGTATAG, the “relative binding free energy” value is 0.08 kcal/mol.

On to GGAGCCACGTGGTATT, for which the “relative binding free energy” value was -0.05 kcal/mol.

Regarding GTTGTCACGTGAATTG, the “relative binding free energy” value was 0.26 kcal/mol.

Turning to AATGGCACGTGACGAG, the “relative binding free energy” value turned out to be 0.04 kcal/mol.

Consider GGTTACACGTGGCTTA, for which the “relative binding free energy” value amounted to 0.12 kcal/mol.

GGGGTCACGTGTAGAG: the “relative binding free energy” value was 0.01 kcal/mol.

For the sequence TGATACACGTGTTGGC, the “relative binding free energy” value was found to be 0.07 kcal/mol.

Turning to TATTGCACGTGAGGAT, the “relative binding free energy” value was determined as 0.14 kcal/mol.

As for GTATGCACGTGTGCTA, the “relative binding free energy” value amounted to 0.07 kcal/mol.

Consider ACGTGCACGTGGTGTT, for which the “relative binding free energy” value was -0.12 kcal/mol.

CTCTTCACGTGGATGT: the “relative binding free energy” value was determined as 0.33 kcal/mol.

Consider GGGCTCACGTGCTTTT, for which the “relative binding free energy” value came out at 0.3 kcal/mol.

As for GTTGTCACGTGGGTGC, the “relative binding free energy” value was determined as 0.06 kcal/mol.

Turning to AGGGACACGTGTAGGC, the “relative binding free energy” value worked out at 0.24 kcal/mol.

For the sequence TGGTGCACGTGTAGGG, the “relative binding free energy” value was -0.02 kcal/mol.

For the sequence AGGCTCACGTGTTTTA, the “relative binding free energy” value turned out to be 0.27 kcal/mol.

As to GGGGTCACGTGGGAGG, the “relative binding free energy” value worked out at 0.08 kcal/mol.

For TTGTACACGTGGGCTC, the “relative binding free energy” value was 0.02 kcal/mol.

Turning to ATGGGCACGTGACGTA, the “relative binding free energy” value was -0.03 kcal/mol.

With GTCTTCACGTGAGTGA, the “relative binding free energy” value was found to be 0.42 kcal/mol.

On to GGATTCACGTGTTAAT, for which the “relative binding free energy” value came to 0.19 kcal/mol.

As for TTACTCACGTGCTTGT, the “relative binding free energy” value was 0.2 kcal/mol.

In the case of AGAGTCACGTGTTGGG, the “relative binding free energy” value worked out at 0.17 kcal/mol.

Regarding GTTGTCACGTGTTGGA, the “relative binding free energy” value is 0.23 kcal/mol.

TAGCGCACGTGCGGTG: the “relative binding free energy” value is -0.17 kcal/mol.

As for ACATGCACGTGGGTGG, the “relative binding free energy” value was -0.19 kcal/mol.

Turning to AGGTGCACGTGGGGTT, the “relative binding free energy” value is -0.14 kcal/mol.

For the sequence TGACTCACGTGAGGCG, the “relative binding free energy” value amounted to 0.33 kcal/mol.

With GATGACACGTGGATTG, the “relative binding free energy” value was 0.1 kcal/mol.

On to TTCAACACGTGTATTG, for which the “relative binding free energy” value came to 0.15 kcal/mol.

Regarding CTGGTCACGTGGGTCT, the “relative binding free energy” value is -0.04 kcal/mol.

As for GACGTCACGTGGTCGG, the “relative binding free energy” value was determined as 0.07 kcal/mol.

For TCGAGCACGTGTTATG, the “relative binding free energy” value is -0.2 kcal/mol.

For ATTAGCACGTGATGAT, the “relative binding free energy” value is 0.15 kcal/mol.

On to GTAGGCACGTGGTTGC, for which the “relative binding free energy” value was -0.17 kcal/mol.

Regarding ATGGACACGTGTTGTA, the “relative binding free energy” value was -0.03 kcal/mol.

Take TCAGACACGTGTTATG: the “relative binding free energy” value was 0.12 kcal/mol.

For the sequence TTATACACGTGCTGTG, the “relative binding free energy” value is -0.06 kcal/mol.

Turning to ATATACACGTGAAGGT, the “relative binding free energy” value turned out to be 0.22 kcal/mol.

On to GAATGCACGTGGTTGG, for which the “relative binding free energy” value was 0.01 kcal/mol.

For the sequence GATTACACGTGGTGGA, the “relative binding free energy” value turned out to be 0.12 kcal/mol.

Turning to GAGGGCACGTGTAGCA, the “relative binding free energy” value was -0.04 kcal/mol.

Turning to TTAGCCACGTGGTGCT, the “relative binding free energy” value is -0.17 kcal/mol.

For ATGGTCACGTGGCAAT, the “relative binding free energy” value is -0.01 kcal/mol.

As to TGTACCACGTGGGAGT, the “relative binding free energy” value is -0.05 kcal/mol.

For the sequence ATTGGCACGTGAGAGG, the “relative binding free energy” value came to 0.07 kcal/mol.

For the sequence TTGTACACGTGCGTAT, the “relative binding free energy” value is 0 kcal/mol.

As for GTACGCACGTGTATGG, the “relative binding free energy” value was -0.07 kcal/mol.

With AAGGGCACGTGCTTGG, the “relative binding free energy” value is -0.14 kcal/mol.

For GTGGGCACGTGCAATG, the “relative binding free energy” value is -0.09 kcal/mol.

Turning to TTATGCACGTGCGTAA, the “relative binding free energy” value was -0.13 kcal/mol.

Consider TTAGGCACGTGTTTAT, for which the “relative binding free energy” value was -0.14 kcal/mol.

For the sequence ATATTCACGTGTTAAG, the “relative binding free energy” value was 0.13 kcal/mol.

Turning to GGGTGCACGTGTTTGT, the “relative binding free energy” value was 0 kcal/mol.

In the case of ATGAGCACGTGAATGG, the “relative binding free energy” value came out at 0.21 kcal/mol.

In the case of TTTGTCACGTGGACAG, the “relative binding free energy” value was -0.08 kcal/mol.

With TCGGGCACGTGATTTG, the “relative binding free energy” value is 0.06 kcal/mol.

Consider AGGGCCACGTGGTGTC, for which the “relative binding free energy” value is -0.24 kcal/mol.

For TAGTACACGTGGGTGC, the “relative binding free energy” value is -0.2 kcal/mol.

TTGGTCACGTGAACAT: the “relative binding free energy” value came out at 0.17 kcal/mol.

Turning to GGGGTCACGTGTTGAC, the “relative binding free energy” value was determined as 0.15 kcal/mol.

Regarding TAGCGCACGTGGGCAG, the “relative binding free energy” value is -0.32 kcal/mol.

Regarding TCTAGCACGTGTCAGG, the “relative binding free energy” value came to 0.07 kcal/mol.

For AATTGCACGTGGGGCT, the “relative binding free energy” value is -0.18 kcal/mol.

Consider GTTGTCACGTGTGCAG, for which the “relative binding free energy” value was found to be 0.14 kcal/mol.

ATTCGCACGTGTTGTG: the “relative binding free energy” value was -0.04 kcal/mol.

With AGTGTCACGTGAGCGA, the “relative binding free energy” value was found to be 0.27 kcal/mol.

Regarding AGGGGCACGTGACTGT, the “relative binding free energy” value is -0.12 kcal/mol.

As to TTAGTCACGTGTGCGT, the “relative binding free energy” value was 0.05 kcal/mol.
